23 molecules from PubChem BioAssay AID463173 (ICCB-Longwood Screening Facility, Harvard Medical School, 2010) can be followed below.

Out of some 52,000 compounds screened, about 1,700 (3.3%) were called active. Rule as the data show it: active = survival mostly below about 52% (no sharp cut-off); inactive = mostly above about 56%. The list shows a part of the results.

In this assay the test system is Wild type. In words: S. aureus survival, RN4220 and DeltatarO strains – OD600, teichoic acid synthesis inhibitors, primary screen (AID 463173). The settings on record: S. aureus RN4220 wild type/DeltatarO growth, OD600, 18 h, hits give low values, screened at 18.75 µg/mL (by protocol).
Turning to `CCOC(=O)c1cccc(Nc2c3c(nc4ccccc24)CCC3)c1`, the survival was inactive: 73%.

On to `O=C1CC(c2ccccc2)Cc2[nH]c(=O)c(C(=O)Nc3cccc(F)c3)cc21` (stereo not drawn), for which the survival was inactive: 85%.

As for `O=C(NCCS(=O)(=O)N1CCN(c2ccccc2)CC1)C(c1ccccc1)c1ccccc1`, the survival is inactive: 90%. For `COc1cccc(N2CCN(S(=O)(=O)c3ccc4[nH]c5c(c4c3)CCCC5)CC2)c1`, the survival was inactive: 71%. `O=C(Nc1ccccc1Br)C1CCCN(S(=O)(=O)c2cccc3nsnc23)C1` (stereo not drawn): the survival is inactive: 79%.

With `Cn1ccnc1SC(=O)N1c2ccccc2Sc2ccccc21`, the survival is inactive: 101%.

With `CCc1ccc(OCC(=O)N(Cc2ccc(Cl)cc2)C2CCS(=O)(=O)C2)cc1` (stereo not drawn), the survival was inactive: 88%.

With `O=C(CSc1nc2c([nH]c3ccccc32)c(=O)n1-c1ccc(F)cc1)N1CCCCC1`, the survival is inactive: 101%.

Turning to `CCOC(=O)c1oc2c(c1C)-c1nn(Cc3ccc(Cl)cc3)cc1CC2`, the survival was active: 2%. In the case of `Cc1noc(C)c1S(=O)(=O)N1CCC(C(=O)N2CCN(c3ccccc3)CC2)CC1`, the survival was inactive: 128%. As for `CCC(C)NC(=O)Cn1c(=O)cc(-c2ccccc2)c2c(C)nn(C)c21` (stereo not drawn), the survival is inactive: 84%. `Cn1c(NCCO)nc2c1c(=O)n(Cc1ccccc1Cl)c(=O)n2C`: the survival is inactive: 73%.

Consider `COc1ccccc1NC(=O)Cn1nnc(C(=O)NCc2ccc3c(c2)OCO3)c1N`, for which the survival was inactive: 129%.

Take `CC(O)c1nc2ccc(Oc3ccc4nc(C(C)O)[nH]c4c3)cc2[nH]1` (stereo not drawn): the survival was inactive: 102%.

As to `CC(C)OC(=O)C1=C(N)OC2=C(C(=O)CCC2)C1c1ccccc1F` (stereo not drawn), the survival was inactive: 114%. Take `COc1cc2[nH]c(=O)n(CCCCCC(=O)N3CCN(c4cccc(C(F)(F)F)c4)CC3)c(=O)c2cc1OC`: the survival was inactive: 87%. The result for `COc1cccc(Oc2nc3c(c(=O)n(Cc4ccccc4F)c(=O)n3C)n2C)c1` reads inactive: 75%; that for `COc1ccccc1C(=O)Nc1cc2c(cc1N1CCOCC1)n(C)c(=O)n2C`, inactive: 134%; that for `CC(C)c1ccc(NC(=O)CN(C)S(=O)(=O)c2ccc3c(c2)c(=O)n(C)c(=O)n3C)cc1`, inactive: 87%. The result for `CCn1c(=O)n(CC)c2cc(N3CCCCC3)c(NC(=O)Nc3ccccc3Cl)cc21` reads inactive: 76%; that for `COc1cccc(N2CCN(C(=O)c3c(C)oc4ncnc(N5CCOCC5)c34)CC2)c1`, inactive: 72%.

Consider `Cc1c(C(=O)N(C)C)sc2c1c(=O)n(-c1ccc(Cl)c(Cl)c1)c(=O)n2CC(=O)Nc1cccc(C(F)(F)F)c1`, for which the survival is inactive: 64%. Consider `Cc1cccc(NS(=O)(=O)c2ccc3oc(=O)c4ncn(C)c4c3c2)c1C`, for which the survival was inactive: 120%.
